{"source": "PubChem BioAssay AID588855", "about": "(National Center for Advancing Translational Sciences (NCATS), 2011)", "note": "The campaign covered roughly 410,000 compounds. About 5,000 (1.2%) were called active. This list was built around the results that the source calls inconclusive (neither active nor inactive); the mix of calls is not that of the screen. Calls come from the whole dose curve; as a rule, active = well fitted inhibition curve with a large enough effect; inconclusive = small, poorly fitted or top-dose-only effect; inactive = no such curve, though single readings can be large or run the other way. Potencies beside an inconclusive call are fits to weak or partial responses and may not hold up. % is set by controls: 0 for no effect and ±100 for the full control effect; potency is the fitted concentration of half-maximal effect; tags give direction and shape of the fitted curve."}
{"assay": "qHTS for Inhibitors of TGF-b; note: nearly all actives have a fitted effect of over 65% in size", "settings": "HepG2 CAGA-GFP TGF-b/SMAD3 reporter, GFP fluorescence, 18 h, TGF-beta stimulated, 500 pg/mL final; series mostly up to 46.1 µM; activity, negative = inhibition: at the top concentration", "summary_of_the_method": "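TGF-beta reporter screen: HEPG2 CAGA-GFP, 1% FBS, 500 pg/mL TGF-beta final, 18 h; per-cell GFP summed per well; curves fitted and categorized by class.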"}
{"smiles": "CCOc1ccc2[nH]c(=O)c(C(c3nnnn3C3CCCCC3)N3CCN(C)CC3)cc2c1", "note": "(stereo not given)", "activity, negative = inhibition": "inactive: 9.86%"}
{"smiles": "O=C(NC(c1ccc(Cl)cc1)c1ccsc1)C1CCN(CCOc2ccc(Cl)cc2)CC1", "note": "(stereo not given)", "Potency": "inconclusive: 35.5 µM [inhibitor, single point]"}
{"smiles": "CSc1ccccc1OCc1cc(C(=O)N2CCN(c3ccccc3)CC2C)no1", "note": "(stereo not given)", "Potency": "inconclusive: 28.2 µM [inhibitor, single point]"}
{"smiles": "COc1ccc(C2=NN(C(=O)c3cccs3)C(c3ccccc3O)C2)cc1", "note": "(stereo not given)", "Potency": "active: 12.6 µM"}
{"smiles": "CCn1c(=O)n(CC)c2cc(S(=O)(=O)N3CCC(c4ccccc4)CC3)ccc21", "Potency": "inconclusive: 7.94 µM [inhibitor, partial curve, poor fit]"}
{"smiles": "CCN(Cc1ccccc1)S(=O)(=O)c1ccc(OC)c2ncccc12", "Potency": "inconclusive: 3.16 µM [inhibitor, single point]"}
{"smiles": "C=C(C)Cn1c(SCC#N)nc2ccccc2c1=O", "activity, negative = inhibition": "inactive: 11.3%"}
{"smiles": "Cc1cccc(C(=O)N[C@H](C(=O)Nc2ccc(C)c(S(=O)(=O)N(C)C)c2)C(C)C)c1", "Potency": "inconclusive: 35.5 µM [inhibitor, single point]"}
{"smiles": "N#Cc1ccc(N=c2ssnc2Cl)cc1", "Potency": "inconclusive: 17.8 µM [inhibitor, single point]"}
{"smiles": "O/N=C1\\CCCC\\C1=C/c1ccccc1", "Potency": "inconclusive: 0.562 µM [inhibitor, full curve, poor fit]"}
{"smiles": "COc1ccc(NC(=O)C2CCCN2S(=O)(=O)c2cccc3cccnc23)cc1OC", "note": "(stereo not given)", "Potency": "inactive"}
{"smiles": "CCOc1cc(/C=N/NC(=O)COc2cccc(C)c2)ccc1OC(=O)c1cccs1", "Potency": "inconclusive: 4.47 µM [inhibitor, partial curve]"}
{"smiles": "Cc1ccc(Cl)cc1NC(=O)C(=O)N1CCCCC1", "activity, negative = inhibition": "inactive: 3.86%"}
{"smiles": "O=C(NC(NC1CCS(=O)(=O)C1)C(Cl)(Cl)Cl)c1ccc(Br)cc1", "note": "(stereo not given)", "Potency": "inconclusive: 25.1 µM [inhibitor, single point]"}
{"smiles": "O=[N+]([O-])c1cccc2ccc(/C=C/c3ccc(F)cc3)nc12", "Potency": "inconclusive: 7.08 µM [inhibitor, partial curve]"}
{"smiles": "Cc1ccc([C@H]2C[C@@H](O)[C@H](n3cc(COC(=O)c4ccccc4)nn3)CN2C(=O)c2cccs2)cc1", "activity, negative = inhibition": "inactive: -2.63%"}
{"smiles": "CCOCCOC(=O)c1ccc(NC(=O)C2COc3ccccc3O2)cc1", "note": "(stereo not given)", "Potency": "inconclusive: 3.16 µM [inhibitor, full curve]"}
{"smiles": "CCOC(=O)c1ccc(NC(=O)C2COc3ccccc3O2)cc1", "note": "(stereo not given)", "activity, negative = inhibition": "inactive: 15.3%"}
{"smiles": "COc1ccc(NC(=O)c2cc(Br)c(Br)s2)cn1", "Potency": "inconclusive: 10 µM [inhibitor, partial curve, poor fit]"}
{"smiles": "O=c1[nH]c2c(s1)C(c1ccco1)C1C3CCC(C3)C1S2", "note": "(stereo not given)", "activity, negative = inhibition": "inactive: -9.89%"}
{"smiles": "Cc1cccc(NC(=O)/C=C/c2cccs2)n1", "activity, negative = inhibition": "inactive: 8.56%"}
{"smiles": "COc1ccc2nc(NC(=O)C3CCN(S(=O)(=O)c4cccs4)CC3)sc2c1", "Potency": "inconclusive: 17.8 µM [inhibitor, partial curve, poor fit]"}
{"smiles": "CCCCOC(=O)c1ccc(NC(C)=O)cc1", "Potency": "inconclusive: 2.82 µM [inhibitor, single point]"}
{"smiles": "O=C(NNC(=O)C(c1ccccc1)c1ccccc1)c1ccccc1O", "activity, negative = inhibition": "inactive: -17.7%"}
{"smiles": "Clc1ccc(Nc2nc(-c3cccs3)cs2)nc1", "Potency": "active: 11.2 µM"}
{"smiles": "Cc1ccc(S(=O)(=O)CCc2nnc(NC(=O)c3ccccn3)s2)cc1", "Potency": "inconclusive: 35.5 µM [inhibitor, single point]"}
{"smiles": "COCCCNC(=S)N(Cc1cccnc1)Cc1ccc(OC)c(OC)c1", "activity, negative = inhibition": "inactive: 15.1%"}
{"smiles": "CC1=NN(C(=O)c2ccc(Cn3cc([N+](=O)[O-])cn3)cc2)C(O)(C(F)(F)F)C1", "note": "(stereo not given)", "Potency": "inconclusive: 7.08 µM [inhibitor, partial curve, poor fit]"}
{"smiles": "Cc1cccc(CN2CCC(CNC(=O)C3CCCN(S(=O)(=O)c4cnc[nH]4)C3)CC2)c1", "note": "(stereo not given)", "Potency": "inconclusive: 20 µM [inhibitor, single point]"}
{"smiles": "CCC(C(=O)NCc1ccccc1OC)n1nc(C)n2c(cc3sccc32)c1=O", "note": "(stereo not given)", "Potency": "inconclusive: 3.16 µM [inhibitor, partial curve, poor fit]"}
{"smiles": "CCOCCCNC(=S)N1CCCN(c2nc3c(C)c(C)ccc3cc2C#N)CC1", "Potency": "inconclusive: 35.5 µM [inhibitor, single point]"}
{"smiles": "CC(NC(=O)c1ccc2c(c1)OCO2)C(c1cccs1)N1CCOCC1", "note": "(stereo not given)", "activity, negative = inhibition": "inactive: 0.414%"}
{"smiles": "CC[C@H](C)/C=C(C)/C=C/C(=O)Cc1cc(O)c(C)c(O)c1C=O", "activity, negative = inhibition": "inactive: -1.9%"}
{"smiles": "COc1ccc(OCCNC(=O)c2ccc3nc(C)c(N(C)Cc4ccc(NC(C)=O)cc4)n3c2)cc1", "activity, negative = inhibition": "inactive: -7.72%"}
{"smiles": "CCOc1ccc2c(c1)n(CO)c(=S)n2CO", "Potency": "inconclusive: 3.98 µM [inhibitor, single point]"}
{"smiles": "COc1cc(NC(=O)NCC2CCN(Cc3ccccc3F)CC2)cc(OC)c1", "activity, negative = inhibition": "inactive: 26.9%"}
{"smiles": "Cc1c(Cl)cccc1NC(=O)CCN1CCOCC1", "activity, negative = inhibition": "inactive: 8.23%"}
{"smiles": "CCOc1ccc(S(=O)(=O)N2CCN(C(=O)c3cc4c(s3)CCCC4)CC2)cc1", "activity, negative = inhibition": "inactive: -17.9%"}
{"smiles": "Cn1cc([N+](=O)[O-])c(C(=O)Nc2ccc(C(=O)N3CCCCC3)cc2)n1", "Potency": "inconclusive: 14.1 µM [inhibitor, single point]"}
{"smiles": "COc1ccc(NC(=O)CSc2nc(N)c3cc4c(nc3n2)CCCC4)c(OC)c1", "Potency": "inconclusive: 11.2 µM [inhibitor, partial curve, poor fit]"}
{"smiles": "O=C(NCCCn1ccnc1)c1cn(-c2ccccc2)nc1-c1ccc(F)cc1", "Potency": "inconclusive: 35.5 µM [inhibitor, single point]"}
{"smiles": "O=C(CCCCCN1C(=O)[C@@H]2Cc3ccccc3CN2C1=O)Nc1ccccc1Cl", "Potency": "inconclusive: 5.62 µM [inhibitor, partial curve]"}
{"smiles": "CCCC(C)C(=O)Nc1nc(C)c(-c2csc(Nc3cc(Cl)ccc3C)n2)s1", "note": "(stereo not given)", "activity, negative = inhibition": "inactive: -32.1%"}
{"smiles": "Cc1c(Cl)cccc1NC(=S)N1CCCN(Cc2ccccc2F)C1", "Potency": "inconclusive: 8.91 µM [inhibitor, partial curve, poor fit]"}
{"smiles": "Cc1ccc(CNC(=O)c2[nH]c(C(F)(F)F)nc2-c2ccccc2)cc1", "Potency": "inconclusive: 11.2 µM [inhibitor, single point]"}
{"smiles": "Cc1cc(S(=O)(=O)NCc2ccco2)c(C)cc1Cl", "activity, negative = inhibition": "inactive: 2.2%"}
{"smiles": "CCOC(=O)C1=C[C@@H](C(C)(C)C)N(S(=O)(=O)c2ccccc2C)[C@H]1c1ccc(Cl)cc1", "Potency": "inconclusive: 11.2 µM [inhibitor, partial curve, poor fit]"}
{"smiles": "CC(C)(C)NC(=O)c1cc(NC(=O)c2cccs2)cc(NC(=O)c2cccs2)c1", "Potency": "inconclusive: 35.5 µM [inhibitor, single point]"}
{"smiles": "CC(C)Nc1nc(N)c(C(=O)C23CC4CC(CC(C4)C2)C3)s1", "Potency": "inconclusive: 35.5 µM [inhibitor, single point]"}
{"smiles": "Cc1ccc(S(=O)(=O)n2nccc2-c2c(-c3ccc(Cl)cc3)noc2C)cc1", "Potency": "inconclusive: 3.98 µM [inhibitor, single point]"}
{"smiles": "Cc1cc(NC(=S)NC(=O)C2CC2)ccc1Br", "Potency": "active: 3.98 µM"}
{"smiles": "Cc1cc(Br)ccc1NC(=O)c1cn(C2CCCC2)c(=O)c2c1c1ccccc1n2C", "Potency": "inconclusive: 7.08 µM [inhibitor, partial curve]"}
{"smiles": "CCOC(=O)C(C)/C(C)=N/NC(N)=S", "note": "(stereo not given)", "Potency": "inconclusive: 3.55 µM [inhibitor, full curve]"}
{"smiles": "Cc1cccc(C(=O)N2CCc3cc(CNC(=O)Cc4ccc(F)cc4)ccc32)c1", "Potency": "inconclusive: 31.6 µM [inhibitor, single point]"}
{"smiles": "O=C(c1cc2ccccc2cc1O)N1CCN(c2ccc([N+](=O)[O-])cc2)CC1", "Potency": "inconclusive: 0.1 µM [inhibitor, full curve, poor fit]"}
{"smiles": "Nc1c(C(=O)CSc2nncn2-c2ccccc2)c(=O)[nH]c(=O)n1C1CC1", "activity, negative = inhibition": "inactive: 14.9%"}
{"smiles": "O=C(Nc1ccc2c(c1)ncn2-c1ccccc1)c1ccco1", "Potency": "inconclusive: 17.8 µM [inhibitor, single point]"}
{"smiles": "O=C1N=c2ccccc2=C1c1sc(Nc2ccc(O)cc2)nc1O", "Potency": "inconclusive: 0.631 µM [inhibitor, partial curve, poor fit]"}
{"smiles": "COc1cc2oc(=O)cc(CN3CCCCCCC3)c2cc1Cl", "Potency": "inconclusive: 35.5 µM [inhibitor, single point]"}
{"smiles": "CCCn1c(NCc2ccc3c(c2)OCO3)nc2ccccc21", "activity, negative = inhibition": "inactive: -6.27%"}
{"smiles": "COc1ccc(NC(=S)N2CCN(C/C=C/c3ccccc3)CC2)c(OC)c1", "activity, negative = inhibition": "inactive: -20.9%"}
{"smiles": "O=C1C=C(NC2CCCC2)CC(c2ccccc2)C1", "note": "(stereo not given)", "Potency": "inconclusive: 5.62 µM [inhibitor, single point]"}
{"smiles": "CNC(=O)c1sc(Nc2ccc(OCc3ccccc3)cc2)nc1C", "Potency": "inconclusive: 5.62 µM [inhibitor, full curve, poor fit]"}
{"smiles": "COCCN1CCN(C(=O)C2CCC(=O)N(CCc3ccccc3)C2)CC1", "note": "(stereo not given)", "Potency": "inconclusive: 0.112 µM [inhibitor, full curve, poor fit]"}
{"smiles": "Cc1n[nH]c(C)c1S(=O)(=O)N1CCCC(C(=O)Nc2ccc(Cl)cc2)C1", "note": "(stereo not given)", "Potency": "inconclusive: 25.1 µM [inhibitor, single point]"}
{"smiles": "Cc1ccc(C(=O)NCCC2=CCCCC2)cc1S(=O)(=O)N1CCCCC1", "Potency": "inconclusive: 11.2 µM [inhibitor, partial curve]"}
{"smiles": "COc1ccc(-c2cnnc(N/N=C/c3ccc(-c4ccc([N+](=O)[O-])cc4)o3)n2)cc1", "activity, negative = inhibition": "inactive: -13.8%"}
{"smiles": "CN(C)c1ccc2nc3ccc(=[N+](C)C)cc-3sc2c1", "Potency": "active: 10 µM"}
{"smiles": "Cc1ccc(C)c(N2CCN(C(=O)Cn3c(-c4cccs4)cc4ccccc43)CC2)c1", "Potency": "inconclusive: 35.5 µM [inhibitor, single point]"}
{"smiles": "COc1ccc(-c2cc(=O)n(-c3nc4ccccc4[nH]3)[nH]2)cc1", "activity, negative = inhibition": "inactive: -4.94%"}
